Inhibition data for 97 compounds are collected here from PubChem BioAssay AID485344 (National Center for Advancing Translational Sciences (NCATS), 2010).

By inhibition is commonly meant the relative decrease from the control value, in per cent.

Structures are written as SMILES. Hit rate of the full screen: of about 340,000 compounds, about 6,900 (2%) were called active. No stated cut-off is given here; in the data, active means inhibition above about 30%; inactive means below that, where a call was filed. Only a part is listed here, and it is no random draw. The source gives no active or inactive call for entries shown without one.

Chain of UniProt P14416 (P14416 whole entry, looked up): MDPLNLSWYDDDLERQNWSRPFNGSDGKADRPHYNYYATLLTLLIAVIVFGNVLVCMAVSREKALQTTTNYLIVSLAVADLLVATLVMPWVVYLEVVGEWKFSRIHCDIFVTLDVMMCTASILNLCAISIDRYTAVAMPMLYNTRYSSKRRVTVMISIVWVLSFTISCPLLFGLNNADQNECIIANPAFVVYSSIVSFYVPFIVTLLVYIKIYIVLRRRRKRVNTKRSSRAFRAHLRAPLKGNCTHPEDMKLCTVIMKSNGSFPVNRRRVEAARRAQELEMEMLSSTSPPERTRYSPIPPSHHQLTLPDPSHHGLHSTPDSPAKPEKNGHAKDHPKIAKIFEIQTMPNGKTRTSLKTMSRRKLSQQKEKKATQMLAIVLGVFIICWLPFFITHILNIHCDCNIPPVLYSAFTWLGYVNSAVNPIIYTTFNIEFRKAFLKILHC

This test has as its target D(2) dopamine receptor (Homo sapiens) (UniProt P14416). Briefly: HTS Assay for Allosteric Antagonists of the Human D2 Dopamine Receptor: Primary Screen for Antagonists. Further: 0% is about no effect. The conditions noted are these: HEK293 TREx D2 cells, calcium flux, dopamine EC80; at 10 µM; stronger effect = higher value. A digest of the protocol:
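Tetracycline-induced HEK293 TREx cells expressing D2 receptor forced-coupled to calcium signalling, loaded with no-wash calcium dye. Compounds added and calcium flux read 180 s, then dopamine added at EC80 and read a further 180 s.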
On to `Cc1ccc(N2CCN(S(=O)(=O)c3cc(Br)cc4c3N(C(=O)C3CC3)CC4)CC2C)cc1` (configuration not stated), for which the inhibition worked out at 7.09%. The value for `CCCCSc1nnc2c(n1)OC(c1ccc(C)s1)Nc1ccccc1-2` (configuration not stated) was -11%; that for `CSc1cccc(NC(=O)/C=C/c2ccc(Cl)cc2)c1` was active: 69.8%; that for `COc1ccc(NS(=O)(=O)c2cc(NC(=O)CCNC(C)=O)ccc2N2CCCCC2)cc1` was active: 36.8%.

With `CCC(Sc1nc2cc3c(cc2c(=O)n1CCCC(=O)NCc1ccc2c(c1)OCO2)OCO3)C(=O)NCCCOC` (configuration not stated), the inhibition came to 13.6%. The value for `CCC(=O)N1c2ccc(S(=O)(=O)N3CCCCCC3)cc2CC1C` (configuration not stated) was 2.76%; that for `Nc1c(-c2nc(-c3ccccc3Cl)no2)nnn1-c1ccccc1F` was -9.49%. In the case of `Cc1ccc(NC(=O)COc2ccc(-c3nn(C)c(=O)c4ccccc34)cc2)c(C)c1`, the inhibition worked out at 20%. The value for `COC(=O)c1cc2oc3ccccc3c2n1CC(=O)Nc1ccc(N(C)C)cc1` was -1.94%. For `COC(=O)c1cc(NC(=O)CC2SCCNC2=O)cc(C(=O)OC)c1` (configuration not stated), the inhibition was active: 34.9%. The value for `O=C(Cn1cc(S(=O)(=O)Cc2ccccc2Cl)c2ccccc21)Nc1cccc(C(F)(F)F)c1` was -8.09%.

As for `Cc1nc2nc(C)c(CCC(=O)NCCc3ccccc3)c(C)n2n1`, the inhibition is -0.558%. As for `CC(COc1ccccc1)N1CCC(CO)(Cc2ccccc2)CC1` (configuration not stated), the figure is active: 85.2%; as for `Cc1ccc(S(=O)(=O)N(CC(=O)Nc2c(C)cccc2C)c2cccc(Cl)c2)cc1`, 2.47%. Take `CC(C)Oc1cccc(C(=O)Nc2ccc3oc(-c4ccccc4)nc3c2)c1`: the inhibition was -3.72%. The value for `Cc1ccc2nc(CN3CCN(S(=O)(=O)c4ccccc4)CC3)oc2c1` was 10.8%; that for `Cc1cc(C)c(S(=O)(=O)Nn2cnnc2)c(C)c1` was active: 31.9%; that for `CCOc1ccc(C(NC(=O)c2cc(OC)c(OC)c(OC)c2)c2cc(Cl)c3cccnc3c2O)cc1` (configuration not stated) was 3.52%.

Take `COC(=O)c1cc(C)nc2c1c(=O)nc(SCc1c(C)cc(C)cc1C)n2C1CC1`: the inhibition was -5.33%.

For `CCc1ccc(NC(=O)CSc2nc3ccccc3c(=O)n2CCC(=O)NC2CCCCC2)cc1`, the inhibition is -21.9%.

Consider `CCC(C)c1ccccc1OCCCN(C)Cc1ccccc1` (configuration not stated), for which the inhibition was active: 34.6%. The value for `CN=c1scc(-c2cccs2)n1/N=C/c1ccc(O)c(O)c1O` was active: 89.3%; that for `Cc1nnc(SCC(N)=O)n1CC1CCCO1` (configuration not stated) was active: 32.8%. In the case of `COc1ccc(C2c3c(-c4ccc(F)cc4)n[nH]c3C(=O)N2c2ccccc2)cc1OC` (configuration not stated), the inhibition worked out at 16.8%. As for `CCOc1ccc(CCNC(=O)c2cc3c(-c4ccccc4F)nn(C)c3s2)cc1OCC`, the figure is -7.75%; as for `CCOC(=O)c1ccc(NC(=O)c2ccc(-c3cccc(Cl)c3C)o2)cc1`, -8.85%; as for `COc1ccc(C2c3c(oc4ccccc4c3=O)C(=O)N2c2nc(C)c(C)s2)cc1` (configuration not stated), -10.5%. The value for `O=c1c2oc3ccccc3c2ncn1Cc1ccc(Br)cc1` was 22.9%; that for `COc1ccc(OC)c2sc(N(CCCN(C)C)C(=O)c3ccco3)nc12` was -19.8%.

Take `CCCCCCSc1ccc(-c2nc3ccc(C)cn3c2NCc2ccccc2)cc1`: the inhibition was active: 34.2%. The value for `O=C(COc1ccccc1)Nc1ccc2nc(SCC(=O)N3CCCC3)sc2c1` was 5.88%; that for `COc1ccc(C2CC(=O)Oc3c2c(=O)n(C)c2ccccc32)c(OC)c1OC` (configuration not stated) was -5.51%; that for `CCOc1ccc(NC(=O)CS(=O)(=O)Cc2nc(-c3ccc(C)cc3)oc2C)cc1` was 7.04%. As for `O=C(CSc1nc2c(c(=O)[nH]1)CCCC2)Nc1ccc(Br)cc1`, the figure is 13.3%; as for `COc1ccc(CNc2cc(-c3ccc(OC)cc3)nc3nncn23)cc1`, -2.85%; as for `COc1ccccc1N1CCN(Cc2c[nH]c3ccccc23)CC1`, active: 48%. As for `O=C(Cc1cccs1)NCc1ccncc1`, the figure is active: 58%; as for `Cc1ccc(NC(=O)C(c2ccccc2)N2Cc3ccccc3C2=O)cc1Cl` (configuration not stated), -14.5%; as for `Cc1ccc(C)c(N2CCN(c3nc4ccccc4n4c(C)nnc34)CC2)c1`, -11.7%.

As to `COc1ccc(NC(=O)CC2C(=O)N(c3ccc(C)cc3)C(=O)N2Cc2cccnc2)cc1` (configuration not stated), the inhibition is 3.8%. Regarding `CCOC(=O)N1CCC2(CC1)OC(=O)C(C)=C2C(=O)NCc1cccc(OC)c1`, the inhibition amounted to 1.21%. Turning to `Cn1c(=O)n(-c2cccc(Cl)c2)c(=O)c2sc3ccccc3c21`, the inhibition was -2.54%.

For `CCCS(=O)(=O)N1CC(=O)N(c2ccccc2C)C(C)(C(=O)NC2CCCC2)C1` (configuration not stated), the inhibition turned out to be 5.06%. As for `COC(=O)c1ccc(C2C(Oc3ccccc3)C(=O)N2CCc2ccc(F)cc2)cc1` (configuration not stated), the inhibition was active: 36.3%.

Regarding `CNC(=O)c1sc2ncccc2c1-n1cccc1`, the inhibition turned out to be 15.5%. As for `CCCCN1C(=O)CN(C2CCCCC2)C(=O)C1c1ccc(OC(C)C)c(OC)c1` (configuration not stated), the inhibition was -0.354%. For `Cc1cccc(-n2ncc(C(=O)NCc3ccccn3)c2C2CCN(C(=O)OC(C)(C)C)CC2)c1`, the inhibition was -4.18%.

Consider `CCN1CCN(Cc2c(O)ccc3c(C)c(-c4ccccc4)c(=O)oc23)CC1`, for which the inhibition came out at 9.37%. The value for `COC(=O)NCc1c(C)nn(-c2ccccc2)c1-n1cccc1` was -11.4%; that for `COc1cc(O)c(C(CCN2CCN(c3ccccc3)CC2)c2ccc(N(C)C)cc2)c(OC)c1` (configuration not stated) was active: 32.1%; that for `Cc1ccc(C)c(NC(=O)C(=O)NCCc2csc3nc(-c4ccccc4C)nn23)c1` was 11.7%. As for `CCOC(=O)c1oc2c(c1C)-c1nn(Cc3ccccc3Cl)cc1CC2`, the figure is -8.35%; as for `CCc1ccccc1NC(=O)CN1C(=O)c2cccnc2Oc2ccc(Cl)cc21`, -20.5%; as for `CCOc1ccc(Br)cc1CNCCSc1nnnn1-c1ccccc1`, -4.31%. For `CC(C)(C)OC(=O)N1CCC(c2c(C(=O)Nc3ccc4c(c3)OCCO4)cnn2-c2ccccc2)CC1`, the inhibition was -2.55%. As to `CCc1ccc(NC(=O)c2nn(-c3ccc(C)cc3)c(=O)n(C)c2=O)cc1`, the inhibition was -5.6%.

For the compound `C=C(C)C(=O)Nc1cccc(C2=NOC3(C2)C[C@H](C(N)=O)N(C(=O)COc2ccc(Cl)cc2)C3)c1` (some centres not stated), the inhibition is active: 35%. For `Cc1ccc(S(=O)(=O)c2nc(-c3ccco3)oc2SCC(C)C)cc1`, the inhibition came to 2.3%. In the case of `COc1cc(OC)c(NC(=O)Cn2cnc3sc(C)c(S(=O)(=O)N4CCN(C)CC4)c3c2=O)cc1Cl`, the inhibition worked out at 20.5%. For the compound `COc1ccc2ncc3c(-c4ccc(C)c(C)c4)nn(CC(=O)NC4CCCCC4)c3c2c1`, the inhibition is 6.84%.

As to `COc1ccc(C(=O)N2CCC(N3CCN(c4ccccc4)CC3)CC2)cc1`, the inhibition was active: 57.1%. As for `O=C(COCc1cc(-c2cccs2)on1)Nc1ccc(OC(F)(F)F)cc1`, the inhibition is -0.962%. For the compound `Cc1cc2c(cc1C)NC(CC(=O)Nc1ccccc1SC(F)(F)F)C(=O)N2` (configuration not stated), the inhibition was determined as 11%. Take `CCCCOc1ccc(NC(=O)Cn2nnnc2-c2ccccc2F)cc1`: the inhibition was -23.1%. With `CN(C)c1ccc(CN(CC2CCCO2)C(=O)c2ccc(Br)cc2)cc1` (configuration not stated), the inhibition was determined as 5.66%. For the compound `CCOc1ccc(N2C(=O)N(Cc3c(F)cccc3Cl)c3ccccc3S2(=O)=O)cc1`, the inhibition was -21%. As for `Cc1ccc2[nH]c3c(=O)n(CC(=O)N4CCN(c5cccc(C(F)(F)F)c5)CC4)ncc3c2c1`, the figure is -4.14%; as for `COc1cccc(CNC(=O)CN2C(=O)CSc3c2c(C)nn3-c2ccccc2)c1`, 2.62%. As for `Cc1ccc2[nH]c(CSc3nnc(COc4ccccc4C)n3C)cc(=O)c2c1`, the figure is -0.444%; as for `Cc1ccc(-n2c(=O)c3ccc(C(=O)NCc4ccccc4Cl)cc3n(CC(=O)Nc3cccc(F)c3)c2=O)cc1`, -3.9%; as for `CCc1cc2c(cc3c(=O)n(CC(=O)N4CCCCC4)ncn32)s1`, 4.63%. Consider `CCOc1ccc2nc(N3CCCC(C(=O)Nc4cccc(Cl)c4C)C3)sc2c1` (configuration not stated), for which the inhibition stood at 9.33%. Take `CCCCN(CCCC)CCNC(=O)c1cc(-c2cccnc2)nc2ccc(S(=O)(=O)N3CCC(C)CC3)cc12`: the inhibition was -11.7%.

As to `O=C(Cc1ccc(NC(=O)N2CCCCc3ccccc32)cc1)NCc1ccccc1`, the inhibition turned out to be 14.3%. Turning to `COc1ccccc1CNC(=O)c1ccc(-c2nc(CS(=O)c3ccccc3)c(C)o2)cc1` (configuration not stated), the inhibition is -8.52%. As for `CCCCn1cc(S(=O)(=O)c2ccc(F)cc2)c(=O)c2ccccc21`, the figure is 0.214%; as for `Cc1ccc(Cl)cc1NC(=O)CN1C(=O)COc2ccc(S(=O)(=O)N3CCOCC3)cc21`, -6.12%. As for `COc1ccc(Cn2c(SCC(N)=O)nc3c(sc4ccccc43)c2=O)cc1`, the figure is -2.38%; as for `Cc1cnc2c(c1SCC(=O)Nc1ccc(F)cc1F)c(=O)n(C)c(=O)n2C`, 1.16%; as for `Cc1cc(F)ccc1NC(=O)C1CCCN(S(=O)(=O)c2ccc3c(c2)CCCC(=O)N3)C1` (configuration not stated), 3.01%. The value for `COc1ccc(S(=O)(=O)c2c(Nc3ccc(C)cc3)sc(C(=O)c3ccc4c(c3)OCO4)c2N)cc1` was 20.2%; that for `COc1ccc(N(Cc2cccs2)C(=O)COc2ccc(C(C)C)cc2)cc1` was 5.42%. Consider `COc1ccc(C(=O)CCC(=O)Nc2ccc(OC)c(Cl)c2)cc1`, for which the inhibition came out at 4.71%. The value for `CCOC(=O)c1[nH]c2c(c1Cc1ccccc1OC)C(=O)CC(c1ccc(OCC)cc1)C2` (configuration not stated) was -13.5%; that for `COc1ccc(C2=CC(c3cccc(C)c3)n3nnnc3N2)cc1` (configuration not stated) was -7.46%. Consider `COc1cc(NC(=O)Cn2nc(-c3ccc(C)c(C)c3)ccc2=O)cc(OC)c1`, for which the inhibition turned out to be 1.04%. As to `CCOC(=O)c1c(C)oc2nc(C)nc(NCCc3ccc(SC)cc3)c12`, the inhibition is -17.6%. As for `CC(C)NC(=O)c1ccccc1NC(=O)c1nsc2ccccc12`, the figure is -18.3%; as for `COc1ccccc1N1CCN(c2nc3ccc(C)cc3n3nnnc23)CC1`, 0.194%.

Take `Cc1nn2c(=O)cc(COC(=O)c3cccc(NC(=O)c4ccc(C(C)(C)C)cc4)c3)nc2s1`: the inhibition was -8.49%. Consider `COc1ccc2oc(C(=O)OCC(=O)N3CCCCC3)c(C)c2c1`, for which the inhibition is active: 31.3%. The value for `COc1ccc(N=C2S/C(=C\c3ccco3)C(=O)N2CC(C)C)cc1` was active: 35.6%. As for `O=C(COC(=O)c1cccc(NC(=O)c2ccc(Br)cc2)c1)c1ccc(Br)cc1`, the inhibition is -6.94%. Consider `COc1cccc(C(=O)Nc2ccc3nc(N4CCC(C)CC4)cc(C)c3c2)c1`, for which the inhibition worked out at 9.86%.

`CCOC(=O)N1CCC(NCCNC(=O)c2ccc(F)c(F)c2)CC1`: the inhibition is active: 59.1%. As for `COc1cccc(C(=O)Nc2ccccc2-c2nnc(-c3cc(OC)ccc3Br)o2)c1`, the figure is -5.5%; as for `COc1ccc(C2=C(C)C(=O)N(Cc3ccc(C(=O)Nc4cc(C)ccc4C)cc3)S2(=O)=O)cc1`, 9.64%.
